Test results from the supplement of paper PMC3334620.
Over roughly 33,000 sequences, “E-score (-0.5 to 0.5)” has its median near -0.01; the highest 2% begin near 0.26. This is one part of the list.

target: Ste12 (UniProt P13574); experiment: PBM E-score (8-mer binding enrichment) (E-score (-0.5 to 0.5)); higher = stronger / more preferred TF binding; most listed sequences are background and not binding sites; conditions: protein concentration: 200 nM; construct: GST-DNA-binding domain
Description: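 Universal 'all 10-mer' protein binding microarrays (Agilent AMADID 015681) probed with GST-tagged S. cerevisiae TFs (full-length or DBD) made by in vitro transcription/translation (PURExpress), about 100-200 nM. Bound TF was detected with fluorescent anti-GST. Each ungapped 8-mer (which stands for itself and its reverse complement) is scored by the PBM enrichment score (E-score), a modified Wilcoxon-Mann-Whitney statistic from -0.5 to +0.5, computed with the Universal PBM Analysis Suite. Scale: above 0.35 generally sequence-specific binding.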

Sequence | PBM E-score
ACTCAGAG | 0.0966
TAGACATA | -0.0958
AGACTCAT | -0.0849
CAGGATGA | 0.0227
AACGCTGA | -0.0103
TGTAAAAA | 0.334
TACTTAAA | 0.0905
CGCAGGAA | -0.0307
CCTATCAA | -0.0522
CAGCGGCG | 0.0568
AAGTGTAT | -0.0551
CTCGATAC | 0.155
AGCAAAAG | -0.188
CCTAGAAA | 0.144
AGGTTTTA | 0.163
CAATATGC | 0.00177
ATCGCGTC | 0.0519
ACTTGACT | -0.035
CGCTCCTA | -0.12
CGCCGCAA | 0.0657
CGATTGCC | -0.0947
AGTGCACG | -0.158
CTACTTGC | -0.00958
AGAGGACG | -0.0899

Sequence | PBM E-score
CCTGCCAA | -0.22
CTATACAC | -0.165
TATCTCCA | 0.129
AATCTGTC | 0.00918
GTGAACAA | 0.133
ACGATACA | 0.0755
ACTACCCC | -0.164
AAACAGGG | 0.0615
ACCCCGAA | 0.158
AAGTCCTA | -0.2
AAAGACGC | -0.138
ACGCTTGC | -0.116
AGTGCTAG | -0.00517
ATCGGAGA | -0.0544
GAACGGCC | -0.0673
AACTAGCT | 0.0268
ATGCGTTC | -0.0191
CCGCCGTA | 0.152
CTGTGACC | -0.0311
GCGCCTAC | 0.158
CCCGTGGA | -0.18
GAGGAACA | 0.00671
CCCCCCAA | -0.166
ATTACTTG | 0.158

Sequence | PBM E-score
ATGCGCTG | -0.12
ACACGCAT | 0.00268
CACCAAAC | 0.15
GATCCTTA | 0.0567
AATACGGT | 0.0215
GAACTCTC | -0.136
AGAAGGCG | -0.0855
CTGGATCC | -0.112
GGGTGGGA | 0.319
ACCAGTTG | -0.145
CCCGGTAA | 0.0211
ACTACTAA | 0.0158
AATCTTTA | 0.2
TCCCTGAA | 0.0767
CTAGTCTA | -0.0753
AAATTCGT | 0.248
AACTCTAT | 0.169
CCTTGGTC | -0.181
CTATAGAG | -0.155
CGCCACGC | -0.167
AAAAGCTC | -0.193
CGTGTAAA | -0.226
TAGCAAAA | 0.113
GTGACCAC | -0.123

Sequence | PBM E-score
CCTAGACC | -0.0369
CTACCATA | -0.0779
AACCAGGA | 0.0519
AATCGTAA | 0.21
CCAGCATC | 0.0222
CATGAATC | 0.069
GAGACCGC | -0.218
CGCTTGTC | -0.119
GTGCTGTA | -0.13
CTGATCTA | 0.131
AGCAGCGG | -0.18
ACCGCTCT | -0.0418
CTACCCCA | -0.0909
GGAAGACA | -0.0618
AATACCAT | -0.0165
TAGTCATA | -0.00845
AAAAGGTA | -0.0201
ACTCCGAA | -0.0771
CATGTAAA | 0.027
ACTATTAG | 0.104
ATAAAGAA | 0.184
AACACTGC | 0.0761
